Results from PubChem BioAssay AID463173 (ICCB-Longwood Screening Facility, Harvard Medical School, 2010).
The campaign covered roughly 52,000 compounds. About 1,700 (3.3%) were called active. Cut-off read from the data, not from the text of the source: active = survival mostly below about 52% (no sharp cut-off); inactive = mostly above about 56%. The list shows a part of the results.

The compounds below were run on Wild type (assay: growth inhibition of S. aureus wild type versus tarO mutant, primary screen, teichoic acid synthesis inhibitors, RN4220, OD600 (AID 463173)). Settings: S. aureus RN4220 wild type/DeltatarO growth, OD600, 18 h, hits give low values, screened at 18.75 µg/mL (by protocol).

How did the survival turn out when O=C(Cn1cc(C(=O)c2ccccc2)c(=O)c2cc3c(cc21)OCCO3)Nc1ccc(F)c(F)c1 was run?
Its survival is inactive: 109%.

COc1ccc(CCNC(=O)c2cc3c(=O)n(C)c4ccccc4c3s2)cc1OC was tested. Which survival did it give?
The survival was inactive: 71%.

With COc1ccc(NC(=O)c2c(NC(=O)COc3ccccc3)sc3c2CCCCC3)cc1 as the compound, how does the survival read?
Its survival is inactive: 73%.

With CCOc1ccccc1CNS(=O)(=O)c1cc2c(cc1C)NC(=O)CO2 as the compound, how does the survival read?
Its survival is inactive: 148%.

With Cc1ccccc1CNC(=O)CCC(=O)N1CCSc2ccccc21 as the compound, how does the survival read?
The survival was inactive: 80%.

How did the survival turn out when O=C(Cn1cc(S(=O)(=O)Cc2ccccc2Cl)c2ccccc21)NCCc1ccccc1 was run?
The survival was inactive: 65%.

How did the survival turn out when COc1ccc(NC(=O)CC2C(=O)N(c3cccc(OC)c3)C(=O)N2CCC2=CCCCC2)cc1 (configuration not stated) was run?
The survival was inactive: 136%.

How did the survival turn out when CCOc1ccc(CC(=O)NCc2ccc3c(c2)CCN3C(=O)c2ccccc2)cc1OCC was run?
The survival was inactive: 71%.

CCn1nnc2cc(C(=O)Nc3cc(C)ccc3C)ccc21 was tested. Which survival did it give?
The survival was inactive: 98%.

How did the survival turn out when O=C(NCc1ccc(F)cc1)C(=O)Nc1ccc2nc3n(c(=O)c2c1)CCCCC3 was run?
Its survival is inactive: 95%.

How did the survival turn out when COc1ccc(NC(=O)CCNS(=O)(=O)c2ccc3c(c2)CCCC(=O)N3)cc1 was run?
The survival was inactive: 73%.

Cc1ccc(-c2cc3ncc4c(n3n2)-c2cc(Cl)ccc2OC4)cc1 was tested. Which survival did it give?
Its survival is inactive: 97%.

How did the survival turn out when Cc1cccc(CN2CCN(CC(=O)NCCc3ccc(Cl)cc3)C2=O)c1 was run?
The survival was inactive: 84%.

With CCCCNC(=O)c1c[nH]c2ccc(C)cc2c1=O as the compound, how does the survival read?
The survival was inactive: 97%.

Which survival does the source give for Cc1cc(C)c(NC(=O)c2oc3c(c2C)-c2[nH]ncc2CC3)c(C)c1 here?
Its survival is inactive: 81%.

Which survival does the source give for CCCCOc1ccc(C(=O)NCc2cn3cccc(C)c3n2)cc1 here?
The survival was inactive: 93%.

Which survival does the source give for Cc1ccc(C(=O)Nc2ccc(C(=O)O)cc2)cc1S(=O)(=O)N1CCC(C)CC1 here?
Its survival is inactive: 91%.

How did the survival turn out when Cc1cccc(-c2nc3scc(CCNS(=O)(=O)c4ccc(F)c(C(F)(F)F)c4)n3n2)c1 was run?
The survival was inactive: 51%.

With CCOC(=O)c1ccccc1NC(=O)CN1C(=O)CC(c2ccccc2)Sc2ccccc21 (configuration not stated) as the compound, how does the survival read?
The survival was inactive: 91%.

Which survival does the source give for Fc1ccccc1N1CCN(c2ncnc3onc(-c4ccc(Cl)cc4)c23)CC1 here?
The survival was inactive: 77%.

How did the survival turn out when COc1ccc(Cl)cc1NC(=O)CSc1nc2c(oc3ccccc32)c(=O)n1Cc1ccco1 was run?
Its survival is inactive: 77%.

How did the survival turn out when CCN(CC)c1nn2c(=O)c(C(=O)NCCc3ccccc3C)cnc2s1 was run?
Its survival is inactive: 127%.

Which survival does the source give for O=C(NCc1ccc(Cl)cc1)C1CCC(CNS(=O)(=O)c2ccccc2)CC1 (configuration not stated) here?
Its survival is inactive: 89%.

How did the survival turn out when Cc1ccc(NC(=O)/C=C/c2ccco2)cc1F was run?
Its survival is inactive: 78%.

With CCOc1ccc(N(C)C(=O)C2CCN(S(=O)(=O)c3c(C)noc3/C=C/c3ccc(C)cc3)CC2)cc1 as the compound, how does the survival read?
Its survival is inactive: 153%.

How did the survival turn out when CCCCOc1ccc(C(=O)NCCc2sc3nc(-c4ccc(OC)cc4)nn3c2C)cc1 was run?
Its survival is inactive: 90%.

How did the survival turn out when CCOc1cc2c(cc1OCC)C(CC(=O)O)N(C(=O)Nc1ccc(Br)c(C)c1)CC2 (configuration not stated) was run?
The survival was inactive: 81%.

Which survival does the source give for O=C(Nc1ccc(N2CCN(c3ccc(F)cc3)CC2)c(C(=O)O)c1)c1cccs1 here?
Its survival is inactive: 85%.

With O=C(NCCNC1CCCC1)c1cccs1 as the compound, how does the survival read?
Its survival is inactive: 116%.

How did the survival turn out when COc1ccc(NC(=O)c2ccco2)cc1NC(=O)c1ccc(C#N)cc1F was run?
Its survival is inactive: 144%.

How did the survival turn out when Cc1c(C(=O)Nc2ccc(F)c(Cl)c2)sc2nc3n(c(=O)c12)CCC3 was run?
Its survival is inactive: 81%.

How did the survival turn out when Cc1nc2ccc(C(=O)N3CCN(Cc4ccccc4)CC3)cc2[nH]1 was run?
The survival was inactive: 98%.

Which survival does the source give for COc1ccc(CNC(=O)C2CC(O)CN2C(=O)Nc2ccccc2)cc1 (configuration not stated) here?
Its survival is inactive: 113%.

CCCNC(=O)c1cnn(-c2ccc(C)c(C)c2)c1C1CCN(C(=O)OC(C)(C)C)CC1 was tested. Which survival did it give?
The survival was inactive: 73%.

Nc1nc2c3cccc4cccc(c(=O)n2n1)c43 was tested. Which survival did it give?
Its survival is inactive: 116%.

Which survival does the source give for O=C(NCCc1ccccc1)C1CCN(c2nc3ccccc3nc2C(F)(F)F)CC1 here?
The survival was inactive: 75%.

Which survival does the source give for CCCCCSc1nnc2c(n1)[nH]c1c(C)cccc12 here?
The survival was inactive: 78%.

With COc1ccccc1N1CCN(c2ncnc3c2cnn3-c2ccc(C)cc2)CC1 as the compound, how does the survival read?
Its survival is inactive: 63%.

For COCCn1c(SCC(=O)c2ccc(C)cc2)nc2cc(C(=O)NC3CCCC3)ccc2c1=O, which survival is on record?
The survival was inactive: 72%.

For FC(F)(F)c1cc(Nc2nc3ccccc3c3nncn23)ccc1Cl, which survival is on record?
The survival was inactive: 95%.

For CCc1ccc(/C=C(/C#N)c2nc(-c3ccc(C)cc3)cs2)cc1, which survival is on record?
The survival was active: -2%.

Which survival does the source give for CCCOc1ccc(C(=O)N2CCC(c3nc4ccccc4s3)CC2)cc1 here?
The survival was inactive: 46%.

For O=C(C1CC1)N1CCc2cc(Br)cc(S(=O)(=O)Nc3ccc(F)c(F)c3)c21, which survival is on record?
Its survival is inactive: 142%.

For Cc1cc(C)cc(N2CCn3c2nc2c3c(=O)n(Cc3c(F)cccc3Cl)c(=O)n2C)c1, which survival is on record?
Its survival is inactive: 86%.

For CCc1ccc2oc(-c3ccc(C)c(NC(=O)Cc4ccccc4)c3)nc2c1, which survival is on record?
The survival was inactive: 143%.

How did the survival turn out when O=C(Cn1c(=O)c(CNc2ccccc2)cc2cc3c(cc21)OCCO3)Nc1ccccc1Cl was run?
Its survival is inactive: 129%.

Which survival does the source give for CC(C)(C)OC(=O)N1CCC(c2c(C(=O)NCCN3CCOCC3)cnn2-c2cccc(Cl)c2)CC1 here?
Its survival is inactive: 76%.

Cn1c(=O)c2c(nc(CN3CCN(c4ccccc4F)CC3)n2Cc2ccc(F)cc2)n(C)c1=O was tested. Which survival did it give?
The survival was inactive: 76%.

For COc1ccc(Cl)cc1N(C(C)=O)c1nc(C)cc(C)c1C#N, which survival is on record?
Its survival is inactive: 102%.

Cc1nn(C)c2c1c(C(F)(F)F)cc(=O)n2Cc1ccc(Br)cc1F was tested. Which survival did it give?
Its survival is inactive: 75%.

O=c1c(S(=O)(=O)c2ccccc2)cn(Cc2ccccc2)c2cc(N3CCCC3)c(F)cc12 was tested. Which survival did it give?
Its survival is inactive: 97%.

For CCOc1ccc(N(Cc2ccccc2)C(=O)c2nc(SC)ncc2Cl)cc1, which survival is on record?
Its survival is inactive: 88%.

With Cc1cc(C)cc(C(=O)NCCc2sc(-c3ccc(F)cc3)nc2C)c1 as the compound, how does the survival read?
The survival was inactive: 84%.

How did the survival turn out when Cc1cccc(NC(=O)CSc2nc3n[nH]c(C)c3c(=N)n2-c2cccc(Cl)c2)c1 was run?
Its survival is active: 14%.

With COc1ccc(Cl)cc1N/C=C(/C#N)c1nc2ccccc2n1C as the compound, how does the survival read?
The survival was inactive: 108%.

With COc1ccc(OC)c(C2CC(=O)Nc3c2c(=O)[nH]c2nc4ccccc4n32)c1 (configuration not stated) as the compound, how does the survival read?
The survival was inactive: 155%.

Which survival does the source give for CCOC(=O)C1CCN(CCC(=O)Nc2ccccc2OC)CC1 here?
Its survival is inactive: 86%.
